# Test results taken from PubChem BioAssay AID463173 (ICCB-Longwood Screening Facility, Harvard Medical School, 2010).
# In all, about 52,000 compounds went through this assay and about 1,700 (3.3%) were called active. Rule as the data show it: active = survival mostly below about 52% (no sharp cut-off); inactive = mostly above about 56%. Some of the results follow.
# Test system: Wild type
# Experiment: S. aureus survival, RN4220 and DeltatarO strains – OD600, teichoic acid synthesis inhibitors, primary screen (AID 463173)
# Conditions: S. aureus RN4220 wild type/DeltatarO growth, OD600, 18 h, stronger effect = lower value, screened at 18.75 µg/mL (by protocol)
row,SMILES,survival
1,Cc1ccc2c(c1C)NC(C(=O)O)C1CC=CC21 (stereo not given),inactive: 72%
2,CCCOc1ccc(NC(=O)CC2C(=O)N(c3ccc(C)cc3)C(=O)N2Cc2cccc(OC)c2)cc1 (stereo not given),inactive: 64%
3,O=C1NC2(CCCCC2)C(=O)N1c1ccc(C(F)(F)F)cc1,inactive: 106%
4,COc1ccc(NC(=O)CN2C(=O)c3ccccc3Sc3ccc(C(=O)N4CCOCC4)cc32)c(OC)c1,inactive: 76%
5,CCOC(=O)C1CCN(c2c(C(=O)c3ccc(C)cc3)cnc3ccc(F)cc23)CC1,active: 3%
6,O=c1c2cc3c(nc2ncn1Cc1ccc(Cl)cc1)CCCC3,inactive: 76%
7,COc1cc(NC(=O)c2cccc(F)c2)ccc1NC(=O)c1cc2ccccc2o1,inactive: 80%
8,CCOc1ccccc1NC(=O)CN1CCCN(Cc2cccc(Cl)c2)S1(=O)=O,inactive: 70%
9,O=C(O)C(c1ccccc1)N1CCCC1 (stereo not given),inactive: 89%
10,COc1cc(C(=O)OCc2cc(=O)n3nc(C(C)C)sc3n2)cc(OC)c1OC,inactive: 78%
11,CCc1ccc(NC(=O)c2nnn(Cc3cccc(C(F)(F)F)c3)c2N)cc1,inactive: 84%
12,COc1cccc(CNC(=O)c2ccc3c(c2)nc2n3CCCCC2)c1OC,inactive: 55%
13,COc1cccc(CNC(=O)COCc2cc(-c3ccc4c(c3)OCO4)on2)c1,inactive: 32%
14,CC1CCC2(CC1)N=C(c1ccccc1)C(=O)N2CC(=O)Nc1ccc(F)c(Cl)c1 (stereo not given),inactive: 67%
15,CCOC(=O)c1cccc(NS(=O)(=O)c2cc3[nH]c(=O)c(=O)[nH]c3cc2C)c1,inactive: 68%
16,Cc1nc2ncnn2c(C)c1CCC(=O)N1CCN(c2cccc(Cl)c2)CC1,inactive: 72%
17,Cc1cccc(-n2c(C)nc3cc(C(=O)NC4CCCCCC4)ccc32)c1,inactive: 80%
18,COc1ccc(NC(=O)Nc2c[nH]c(=O)[nH]c2=O)c(OC)c1,inactive: 70%
19,CCc1ccc(NC(=O)C2=CC(c3ccc4c(c3)OCO4)=NS(=O)(=O)N2C)cc1,inactive: 96%
20,CC(NC1=NCCN1)C(=O)O (stereo not given),inactive: 104%
21,Cc1c(C(=O)N(Cc2ccc(Cl)cc2)CC2CCCO2)oc2ccc(F)cc12 (stereo not given),inactive: 77%
22,COc1ccccc1CNC(=O)CSc1ncc2c(n1)-c1cc(Cl)ccc1N(Cc1ccccc1)S2(=O)=O,inactive: 73%
23,CCOc1ccc(-c2nc(SCC(=O)NCCCOC)c(-c3ccccc3)[nH]2)cc1,inactive: 141%
24,CCn1c(CN2CCOCC2)nc2cc(NC(=O)c3ccc([N+](=O)[O-])cc3)ccc21,inactive: 90%
25,Cc1ccc2c(c1)cc(CN(Cc1ccco1)C(=O)N(C)C)c1nnnn12,inactive: 107%
